Each structure is given as a SMILES string. Screen size: about 48,000 compounds; about 550 (1.1%) were called active. Inconclusive results (about 4%) are left out. No stated cut-off is given here; in the data, active means potency below about 15 µM; inconclusive means mostly about 16 µM to 33 µM; inactive means weaker than that. The list shows a part of the results.
Potency means the concentration at half of the fitted maximal effect.

Chain of UniProt P04062 (P04062 whole entry, looked up): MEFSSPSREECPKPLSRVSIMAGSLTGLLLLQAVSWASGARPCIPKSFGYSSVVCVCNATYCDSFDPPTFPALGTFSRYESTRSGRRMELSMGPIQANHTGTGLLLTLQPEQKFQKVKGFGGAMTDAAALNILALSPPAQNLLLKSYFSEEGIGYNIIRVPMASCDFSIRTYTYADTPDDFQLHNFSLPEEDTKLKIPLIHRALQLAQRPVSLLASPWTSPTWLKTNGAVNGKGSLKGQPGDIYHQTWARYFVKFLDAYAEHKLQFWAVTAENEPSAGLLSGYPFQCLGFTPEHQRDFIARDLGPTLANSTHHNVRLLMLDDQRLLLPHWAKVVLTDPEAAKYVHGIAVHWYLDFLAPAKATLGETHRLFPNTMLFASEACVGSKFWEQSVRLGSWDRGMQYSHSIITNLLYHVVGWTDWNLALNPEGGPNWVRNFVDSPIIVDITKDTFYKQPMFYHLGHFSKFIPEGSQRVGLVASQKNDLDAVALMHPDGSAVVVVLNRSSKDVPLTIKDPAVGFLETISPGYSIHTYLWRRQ

The target of this experiment is Lysosomal acid glucosylceramidase (Homo sapiens) (UniProt P04062). Kind of experiment: Glucocerebrosidase.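 Further: the screen sought inhibitors.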 The note with it: purified enzyme, resorufin glucoside fluorescence (screen aimed at inhibitors), 20 min. The method, boiled down:
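Compounds titrated against 0.2 nM normal enzyme, 30 uM resorufin beta-D-glucopyranoside substrate, citrate/phosphate buffer with taurocholate and tween-20, pH 5.9. Reaction ran 20 min at room temperature; fluorescence (Ex 548/Em 600) gave AC50.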
As for `CCCCn1c(=S)[nH]c2c(oc3ccc(Cl)cc32)c1=O`, the Potency is inactive: > 76.9 µM.

Regarding `O=C(c1c[nH]c2ccc(S(=O)(=O)N3CCOCC3)cc2c1=O)N1CCCC1`, the Potency is inactive: > 76.9 µM.

Take `C=CCn1c(=O)c2c(C)c(C)sc2n2c(Nc3ccc(OC)cc3)nnc12`: the Potency was inactive: > 76.9 µM. As for `NC(=O)c1c(-c2cccs2)csc1N`, the figure is inactive: > 76.9 µM. Regarding `Cc1onc(-c2ccccc2)c1C(=O)N1CCN(C(=O)c2ccco2)CC1`, the Potency was inactive: > 76.9 µM. Then `O=C(NC(NCc1ccccn1)(C(F)(F)F)C(F)(F)F)c1ccco1`, with inactive: > 76.9 µM. For `COc1ccc(CCC(=O)Nc2ccc(Br)cn2)cc1`, the Potency is inactive: > 76.9 µM. Then `Cc1sc2nc(C3CC3)nc(SCC(=O)NCc3ccco3)c2c1C`, with inactive: > 76.9 µM; and `COCCCNc1ccnc2c(Cl)cccc12`, with inactive: > 76.9 µM; and `CCC(C(=O)Nc1cnccn1)c1ccccc1` (centres undefined), with inactive: > 76.9 µM. In the case of `O=C(CN1CCC(n2nnc3ccccc32)CC1)Nc1ccc2c(c1)CCC2`, the Potency was inactive: > 76.9 µM. Then `O=C1NC(c2ccccc2)(C(F)(F)F)SC2=CCCCCN12` (centres undefined), with inactive: > 76.9 µM. As for `CN(C)S(=O)(=O)c1ccc(C(=O)N2CCCC2c2nc3ccccc3s2)cc1` (centres undefined), the figure is inactive: > 76.9 µM; as for `O=S1(=O)NC(=NCc2ccccc2)c2ccccc21`, inactive: > 76.9 µM; as for `CC(=O)N1CCN(c2ccccc2NC(=O)c2cc(Br)ccc2Cl)CC1`, inactive: > 76.9 µM. As for `COc1ccc(CCN2CCCn3c2nc2c3c(=O)n(Cc3ccccc3F)c(=O)n2C)cc1OC`, the figure is inactive: > 76.9 µM. Regarding `Cc1ccc(N2CCN(C(=O)c3ccccc3)CC2)c(C)c1`, the Potency was inactive: > 76.9 µM. As for `Cc1ccc2cc(CCNC(=O)c3ccc(Br)o3)c(=O)[nH]c2c1`, the figure is inactive: > 76.9 µM; as for `CCc1c(C)[nH]c(=S)c(C#N)c1C`, inactive: > 76.9 µM; as for `O=C(Nc1ccc(N2CCN(c3ccc(O)cc3)CC2)cc1)Oc1ccccc1`, inactive: > 76.9 µM. Consider `CC(=O)CN1Cc2ccccc2/C1=N\C(=O)Nc1ccccc1`, for which the Potency is inactive: > 76.9 µM. As to `Cc1cc(N2CCN(c3ccccc3F)CC2)nc2cc(O)ccc12`, the Potency result is “inactive”. Then `Cc1ccc(SCc2cc(=O)n3[nH]cnc3n2)cc1`, with inactive: > 76.9 µM; and `Cc1ccc2c(c1)N(CCC(=O)NCC1CCCO1)C(=O)CO2` (centres undefined), with inactive: > 76.9 µM. As for `CSc1nc(NC(C)C)nc(N2CCOCC2)n1`, the figure is inactive: > 76.9 µM; as for `COc1ccc(C(CNC(=O)C2CC(=O)N(Cc3ccc(C)cc3)C2)N(C)C)cc1` (centres undefined), inactive: > 76.9 µM. `Cc1cc2oc(=O)cc(C)c2cc1NC(=O)CCC(=O)O`: the Potency is inactive: > 76.9 µM. As for `CC(=O)c1c(N2CCN(C(=O)C3CCCO3)CC2)nc(=S)n(-c2ccccc2)c1C` (centres undefined), the figure is inactive: > 76.9 µM. As for `N#Cc1ccc(COC(=O)Cn2nnc(-c3ccccc3)n2)cc1`, the figure is inactive: > 76.9 µM; as for `CCOC(=O)CSc1nc2c(cnn2-c2ccc(C)cc2)c(=O)[nH]1`, inactive: > 76.9 µM.

In the case of `COc1ccc(C(=O)C2CCN(S(=O)(=O)c3ccc4c(c3)OCCO4)CC2)cc1`, the Potency was inactive: > 76.9 µM. As for `COc1ccc2nc3oc(C(=O)N4CCCCC4)cc3cc2c1`, the figure is inactive: > 76.9 µM. Then `O=C(Cc1ccc(F)cc1)OCC(=O)c1cc2ccccc2o1`, with inactive: > 76.9 µM; and `CC1=CC(c2ccccc2)n2nc(N3C(=O)c4ccccc4C3=O)nc2N1` (centres undefined), with inactive: > 76.9 µM. As for `Cc1c(NC(=O)C(C)Oc2ncnc3ccccc23)c(=O)n(-c2ccccc2)n1C` (centres undefined), the figure is inactive: > 76.9 µM; as for `CCCS(=O)(=O)N1CCCC(C(=O)NCC2CCCO2)C1` (centres undefined), inactive: > 76.9 µM. Consider `O=C(Nc1ccc(N2CCCCC2)cc1)c1cccnc1`, for which the Potency entry was “inactive”. As for `Cn1nnnc1SCc1cc(=O)n2ccsc2n1`, the figure is inactive: > 76.9 µM. Then `CCOc1ccc(Nc2nc(Cc3nnc(SCC(N)=O)o3)cs2)cc1`, with inactive: > 76.9 µM; and `CCc1nc2oc3ccccc3c(=O)c2c(=O)n1Cc1ccc(OC)cc1`, with inactive: > 76.9 µM. Then `COc1ccccc1OCCSc1ncnc2nc[nH]c12`, with inactive: > 76.9 µM.

Consider `CCn1c(=O)c2c(cnn2C)c2ccccc21`, for which the Potency was inactive: > 76.9 µM. Turning to `COCCN1C(=O)c2ccc(C(=O)NCc3cccnc3)cc2C1=O`, the Potency is inactive: > 76.9 µM. Then `CCOCCCNS(=O)(=O)c1ccc2c(c1)CCN2C(C)=O`, with inactive: > 76.9 µM; and `Cn1c(SC2C(=O)CC(C)(C)CC2=O)nnc1-c1ccco1`, with inactive: > 76.9 µM; and `O=C(c1ccc(Br)o1)N1CCN(c2ccc(F)cc2)CC1`, with inactive: > 76.9 µM. As for `COc1ccc(C)c2sc(N3CCCC3)nc12`, the figure is inactive: > 76.9 µM; as for `CC(=O)OCCn1c(Br)nc2c1c(=O)[nH]c(=O)n2C`, inactive: > 76.9 µM; as for `CCCCCCn1c(N2CCC(C)CC2)nc2c1c(=O)[nH]c(=O)n2C`, inactive: > 76.9 µM. As for `CCCCn1c(C(C)O)nc2ccccc21` (centres undefined), the figure is inactive: > 76.9 µM; as for `Cc1cc(C)n(C(=O)CNC(=O)COc2ccccc2)n1`, inactive: > 76.9 µM. `CC1(C)NC(=O)N(CCCOc2ccc(Br)cc2Cl)C1=O`: the Potency was inactive: > 76.9 µM. Then `CC(C)N1C(=O)C2C(C(=O)NC3CCCCC3)C3C=CC2(O3)C1C(=O)NC1CCCC1` (centres undefined), with inactive: > 76.9 µM; and `c1csc(-c2nn3c(C4COc5ccccc5O4)nnc3s2)c1` (centres undefined), with “inactive”. As for `O=C(c1cccc(COc2ccc(Cl)cc2Cl)c1)N1CCN(c2ccccn2)CC1`, the entry is “inactive”. Then `COc1ccc(-c2nc(-c3ccncc3)no2)cc1OC`, with inactive: > 76.9 µM. With `Cc1cc(C(F)F)n2nc(C(=O)O)nc2n1`, the Potency was inactive: > 76.9 µM. As to `COCCSc1nnc(NC(=O)C2CCCO2)s1` (centres undefined), the Potency was inactive: > 76.9 µM.

Consider `Cn1cccc1Cc1nnc(SCC(=O)NCC2CCCO2)n1CCc1ccccc1` (centres undefined), for which the Potency is inactive: > 76.9 µM. Then `Cc1[nH]cnc1CSCCN`, with inactive: > 76.9 µM. Then `COc1cccc(-c2cc(C(F)(F)F)n3nc(N)nc3n2)c1`, with inactive: > 76.9 µM; and `O=C(NCCN1CCN(c2ccccc2F)CC1)C1CC(=O)N(C2CCCC2)C1` (centres undefined), with inactive: > 76.9 µM.

On to `CCOc1ccc(C(=O)N(Cc2ccc(N(C)C)cc2)C2CCS(=O)(=O)C2)cc1` (centres undefined), for which the Potency was inactive: > 76.9 µM. Then `CS(=O)(=O)N1CCC(NC(=O)Cc2ccccc2)CC1`, with inactive: > 76.9 µM; and `O=C(CSc1nnc(COc2ccccc2)o1)N1CCN(c2ccccc2)CC1`, with inactive: > 76.9 µM; and `O=C(CCn1nc(-c2ccccc2)ccc1=O)N1CCCC1`, with inactive: > 76.9 µM. On to `O/N=C(/CN(O)/C=C1/C=CC=N1)c1cccs1`, for which the Potency was inactive: > 76.9 µM. Then `O=C(CP(=O)(CO)CO)c1ccc(Cl)cc1`, with inactive: > 76.9 µM; and `CCC(C)C(=O)Nc1c2c(nc3c1CCC3)CCCC2` (centres undefined), with inactive: > 76.9 µM. As for `CCCc1cc(=O)[nH]c(SC(CC)C(=O)Nc2ccccc2C#N)n1` (centres undefined), the figure is inactive: > 76.9 µM; as for `COc1ccc(CC(=O)Nc2ccc(N3CCN(c4ccc(OC)cc4)CC3)c(C#N)c2)cc1`, inactive: > 76.9 µM; as for `Cc1c(C)c2cc3c4c(oc3c(C)c2oc1=O)CCCC4`, inactive: > 76.9 µM. As for `CCOC(=O)N1CCN(C(=O)C2CCCN(c3ncnc4c3sc3cccc(F)c34)C2)CC1` (centres undefined), the figure is inactive: > 76.9 µM; as for `COc1ccc(N(C(=O)c2cccc(OC)c2OC)C2C=CS(=O)(=O)C2)c(OC)c1` (centres undefined), inactive: > 76.9 µM; as for `CCCCn1nnc(NC(=O)CC23CC4CC(CC(C4)C2)C3)n1`, inactive: > 76.9 µM. Consider `Cc1ccc(S(=O)(=O)N2CCN(S(C)(=O)=O)C2)cc1`, for which the Potency was inactive: > 76.9 µM. On to `CCOC(=O)/C=C1\SCC(=O)N1Cc1ccc(Br)cc1`, for which the Potency was inactive: > 76.9 µM. Take `COc1cccc(-n2c(SCC(=O)N3CCOCC3)nc3c([nH]c4ccccc43)c2=O)c1`: the Potency is inactive: > 76.9 µM. As for `CN(CC(=O)Nn1cnnc1)S(=O)(=O)c1cc(Cl)ccc1Cl`, the figure is inactive: > 76.9 µM; as for `CC(NC(=O)c1cccs1)C(=O)NC1=NCCS1` (centres undefined), inactive: > 76.9 µM; as for `COc1cccc(NC(=O)CN2CCN(c3ccc(F)cc3)CC2)c1`, inactive: > 76.9 µM.

As to `CCCCn1c(Cc2ccccc2)n[nH]c1=S`, the Potency was inactive: > 76.9 µM. Then `CCOc1nc(-c2ccc(C)cc2)ccc1-c1noc(COC)n1`, with inactive: > 76.9 µM.

For `COc1ccc(NC(=O)CC(Cc2ccccc2)C(=O)O)cc1` (centres undefined), the Potency was inactive: > 76.9 µM. As for `CC(=O)N1CCN(S(=O)(=O)c2ccc(S(=O)(=O)NCC(C)C)cc2)CC1`, the figure is inactive: > 76.9 µM. As for `CCOC(=O)C1=C(C)N=C2SCCC(=O)N2C1c1cccs1` (centres undefined), the figure is inactive: > 76.9 µM. Then `O=C1NC(c2cc3c(cc2Cl)OCO3)Oc2ccccc21` (centres undefined), with inactive: > 76.9 µM; and `CCCCCCNC(=O)C(C#N)c1nc2ccccc2nc1N1CCCC1` (centres undefined), with inactive: > 76.9 µM; and `COc1ccc(-n2c(=O)[nH]cc(C(=O)Nc3ccc4c(c3)OCCO4)c2=O)cc1`, with inactive: > 76.9 µM. Consider `CCOC(=O)C(NC(C)=O)(Nc1ccc(S(=O)(=O)Nc2onc(C)c2C)cc1)C(F)(F)F` (centres undefined), for which the Potency was inactive: > 76.9 µM. As for `CCc1ccc(CCC(=O)Nc2nccs2)o1`, the Potency is inactive: > 76.9 µM.

As for `O=C(CSc1nnc(-c2cccnc2)n1Cc1ccco1)NCc1ccc2c(c1)OCO2`, the Potency was inactive: > 76.9 µM. As to `CS(=O)(=O)N(CC(=O)NCc1ccco1)Cc1ccc(Cl)cc1`, the Potency is inactive: > 76.9 µM.

With `CC(=O)N1CCc2cc(S(=O)(=O)N3CCOCC3)ccc21`, the Potency is inactive: > 76.9 µM.

The values are drawn from PubChem BioAssay AID360 (National Center for Advancing Translational Sciences (NCATS), 2006).
